Target: the molecule itself
Experiment: cross-linking

B1: BPIA-labeled Hsp42-Y11C/C127A (natural protein)
chain: not shown
modifications: benzophenone-4-iodoacetamide (BPIA) on the cysteine at position 11
  binding result: binds

Reference: article PMC5881502 (The Journal of Cell Biology, 2018)
